# In PubChem BioAssay AID1458 (National Center for Advancing Translational Sciences (NCATS), 2008):
# Out of some 210,000 compounds screened, about 5,900 (2.8%) were called active. Inconclusive results, whose numbers are uncertain, are shown with a selection of clear calls. Calls follow the shape of the dose curve; as a rule, active = well fitted activation curve with a large enough effect; inconclusive = small, poorly fitted or top-dose-only effect; inactive = no such curve, though single readings can be large or run the other way. A potency beside an inconclusive call is a rough fit, not a confirmed value.
# Test: qHTS Assay for Enhancers of SMN2 Splice Variant Expression; also: nearly all actives have a fitted effect of over 55% in size; as to activity change, positive = activation: % of control where 0% means no effect
# Conditions: HEK293 SMN2-luciferase splicing reporter, luminescence, 30-36 h; activity change, positive = activation: at 46.1 µM (top of the series)
# In short: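 HEK293 cells carry an SMN2 minigene-luciferase reporter in which exon 7 inclusion puts luciferase in frame. Cells were seeded at 2000 cells/well, attached for 10-12 hours, then exposed to compounds for 30-36 hours at 37C before ONE-Glo luminescence.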
# Potency is read from the fitted curve at half-maximal effect; tags tell the direction and shape of the fitted curve.
Structure (SMILES),Potency,"activity change, positive = activation"
Cc1cc(-c2nc3ncccc3o2)ccc1NC(=O)c1ccc(Br)cc1,"inconclusive: 7.94 µM [activator, partial curve, poor fit]",
COc1ccc(CCNS(=O)(=O)c2ccc3oc(C(=O)O)c(C)c3c2)cc1OC,,inactive: 9.14%
O=C(CN1C(=O)c2ccccc2S1(=O)=O)Nc1cccnc1,,inactive: -42%
O=C(COc1ncnc2ccccc12)Nc1ccccc1[N+](=O)[O-],"inconclusive: 15.8 µM [activator, single point]",
CCCNC(=O)c1cc(-c2ccco2)on1,active: 17.8 µM,
Cc1ccc(C(=O)Nc2ccc3nc(C)sc3c2)s1,active: 12.6 µM,
Cc1ccc(OCC(=O)N2c3ccccc3CC2C)c([N+](=O)[O-])n1 (configuration not stated),,inactive: -3.27%
Cc1ccc(OC(=O)c2cccc(S(=O)(=O)N(C)C)c2)c(-n2nc3ccccc3n2)c1,"inconclusive: 15.8 µM [activator, single point]",
Cc1cc(C(=O)COC(=O)c2ccc[nH]c2=O)c(C)n1C1CC1,"inconclusive: 14.1 µM [activator, single point]",
CN(C)S(=O)(=O)c1cccc(C(=O)OCC(=O)Nc2sccc2C#N)c1,"inconclusive: 0.0028 µM [activator, full curve, poor fit]",
O=C(N/N=C/c1ccc(OC(=O)c2cccs2)cc1)c1cccc(F)c1,"inconclusive: 11.2 µM [activator, single point]",
COc1ccc(/C=N/OC(=O)Nc2ccccc2OC)cc1,active: 15.8 µM,
O=C(NCc1cccnc1)Nc1cccc(NC(=O)NCc2cccnc2)c1,"inconclusive: 10 µM [activator, partial curve]",
COc1ccc(NC(=O)CC2C(=O)N(c3ccc(OC)cc3)C(=S)N2NC(=O)c2cccc(F)c2)cc1 (configuration not stated),"inconclusive: 5.62 µM [activator, single point]",
C/C(=N\NC(=O)COc1ccccc1F)c1cc2ccccc2o1,"inconclusive: 35.5 µM [activator, single point]",
COc1ccc(S(=O)(=O)N(CC(=O)NCc2ccc(C)cc2)c2ccc(Cl)cc2)cc1,,inactive: 0.307%
Cn1c(CNc2nc3ccccc3n2C)nc2ccccc21,"inconclusive: 35.5 µM [activator, single point]",
O=[N+]([O-])c1cc(/C=N\Nc2nccs2)ccc1O,"inconclusive: 0.501 µM [activator, partial curve, poor fit]",
COc1cc(OC)c(C(=O)Nc2ccc(S(=O)(=O)Nc3ncccn3)cc2)cc1OC,"inconclusive: 0.891 µM [activator, partial curve, poor fit]",
Cc1ccc(NCCC(=O)c2cccs2)cc1C,"inconclusive: 22.4 µM [activator, partial curve, poor fit]",
FC(F)Sc1ccc(NC(=S)NC2CCCC2)cc1,"inconclusive: 10 µM [activator, partial curve]",
Cc1ccc(O)c(NC(=O)c2cccc(S(=O)(=O)N3CCCCC3)c2)c1,active: 4.47 µM,
c1csc(CSc2nc3ccccc3s2)c1,"inconclusive: 35.5 µM [activator, single point]",
N#Cc1c(-c2ccccc2)c(-c2ccccc2)nn(CC(=O)NNC(=O)Nc2ccccc2)c1=O,"inconclusive: 0.02 µM [activator, full curve, poor fit]",

Structure (SMILES),Potency,"activity change, positive = activation"
Cc1cccc2cc(CN(CCN3CCOCC3)C(=O)NCc3ccccc3)c(=O)[nH]c12,"inconclusive: 20 µM [activator, partial curve, poor fit]",
O=Cc1ccc(Cl)c(Cl)c1,,inactive: -11.1%
COc1cccc(C(=O)/C=C/Nc2ccc(S(=O)(=O)Nc3ncccn3)cc2)c1,,inactive: 11.6%
CCOc1ccc(C(CCc2ccccc2)NC(=O)c2ccccc2)cc1OCC (configuration not stated),"inconclusive: 3.55 µM [activator, full curve, poor fit]",
COc1cccc(CNc2ccc(Br)cn2)c1O,active: 14.1 µM,
Cn1c(=O)[nH]c(=O)c2c1nc(CN1CCN(c3ccccc3F)CC1)n2CCCc1ccccc1,"inconclusive: 5.01 µM [activator, single point]",
CCOC(=O)c1sc2nc3c(cc2c1N)COC(C)(C)C3,active: 11.2 µM,
O=C(Nc1ccc(Cl)c(C(F)(F)F)c1)C1CCN(S(=O)(=O)c2cccc3nonc23)CC1,,inactive: -6.84%
COc1ccc(C2NC(=S)NC3=C2CCc2cc(OC)ccc23)cc1 (configuration not stated),,inactive: 3.22%
Cc1cccc(N2CCN(C(=O)Cn3nc(Cc4cccnc4)c4ccccc4c3=O)CC2)c1C,,inactive: -16.9%
CCc1ccc2oc(C(=O)Nc3ccccc3C(=O)OC)cc(=O)c2c1,,inactive: -7.66%
CCCCC#Cc1nc(N)c2ncn([C@@H]3O[C@H](C(=O)NCC)[C@@H](O)[C@H]3O)c2n1,"inconclusive: 1.12 µM [activator, partial curve]",
Cc1cccc2nc(-c3cccnc3)c(NCCC(C)C)n12,,inactive: -13.2%
CCOC(=O)c1c(N2C(=O)C3CC(C)=C(C)CC3C2=O)sc(C)c1C (configuration not stated),"inconclusive: 35.5 µM [activator, partial curve, poor fit]",
COc1ccc(N=C2SC(C(=O)O)CC(=O)N2Cc2ccc(OC)c(OC)c2)cc1 (configuration not stated),"inconclusive: 4.47 µM [activator, full curve, poor fit]",
CCOC(=O)N1CCC(NC(=O)c2cc3cc4cc(OC)ccc4nc3o2)CC1,,inactive: -21.2%
c1ccc(-c2nc3ccccc3o2)nc1,"inconclusive: 5.01 µM [activator, full curve]",
Cn1cc(C(=O)Nc2ccc(F)c(F)c2)cn1,,inactive: -0.509%
CCOc1cccc(C(=O)Nc2nccs2)c1,"inconclusive: 12.6 µM [activator, partial curve]",
COc1cccc(-c2ncc3ccccn23)c1,active: 14.1 µM,
Cc1ccccc1OCc1nc(-c2ccc(NC(=O)c3cccs3)cc2)no1,"inconclusive: 1.12 µM [activator, full curve, poor fit]",
COc1cccc(-c2noc(COc3ccccc3Cl)n2)c1,"inconclusive: 31.6 µM [activator, single point]",
O=C(CSCc1cnn(-c2ccccc2)c1-n1cccc1)NCc1cccs1,"inconclusive: 28.2 µM [activator, single point]",
